Measurements as given in paper PMC10726135.
This is one part of the list. At the low end of the ranking the order means little. Measured with an extract: partners may take part in the binding.

These sequences were tested against T1, HNF4alpha8 (COS-7 nuclear extract) (UniProt P41235-5) (assay: protein-binding microarray). Conditions: COS-7 nuclear extract on double-stranded Agilent 4x180k PBM; binding buffer, salt, pH and temperature not given; high values mean tight binding; double strand, one strand shown; sequences stand for … in …GCCTAGGGAGATTAGAGTATCGGTCGA.
T1 sequence: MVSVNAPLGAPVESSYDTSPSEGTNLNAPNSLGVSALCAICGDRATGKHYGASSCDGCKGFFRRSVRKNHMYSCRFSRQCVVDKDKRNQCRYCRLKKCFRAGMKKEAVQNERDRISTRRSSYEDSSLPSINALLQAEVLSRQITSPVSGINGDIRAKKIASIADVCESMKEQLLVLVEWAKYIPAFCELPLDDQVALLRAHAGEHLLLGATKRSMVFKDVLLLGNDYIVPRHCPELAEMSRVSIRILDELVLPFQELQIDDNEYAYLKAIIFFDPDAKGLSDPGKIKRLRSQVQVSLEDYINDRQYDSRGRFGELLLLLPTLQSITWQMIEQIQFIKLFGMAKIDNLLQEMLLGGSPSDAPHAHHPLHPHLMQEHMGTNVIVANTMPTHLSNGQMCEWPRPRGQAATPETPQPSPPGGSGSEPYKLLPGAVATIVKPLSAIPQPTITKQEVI
TGAGGACTTTGGTCTTATTACTAAGTGAGA showed a binding signal (log2 normalized intensity) of 2.64.
For GACCTGTTTGTCTTGCTGGGGAGATCAGAG, the binding signal (log2 normalized intensity) was 1.23.
GCCTTTCAGGCAGGAGACGATGGTTTTCCA was tested, and the binding signal (log2 normalized intensity) was -1.3.
For CGCCTTGCACAAATTTCAGATATCTGAATG, the binding signal (log2 normalized intensity) was 0.505.
With GATGATTCCCTTATCTTCTCCCCTGCCAAA the binding signal (log2 normalized intensity) was 3.42.
In the case of TCTTTGTTCAGAGGGCATGTTGAGTGGAAT, the binding signal (log2 normalized intensity) is reported as 2.14.
With CAGAAGGGACTAGCCTTATCTCAGATGAGA the binding signal (log2 normalized intensity) was -1.38.
With AGGGAGATAGAGAAAGAAAAAGTACACACC the binding signal (log2 normalized intensity) was -1.34.
TCTAGTCTAGTCCAAACTGCAACCTGATAA showed a binding signal (log2 normalized intensity) of 0.16.
With TGGGGTTCAGCCACACCAAGTCTGGACCTG the binding signal (log2 normalized intensity) was 2.58.
Work on AGGCAAGATCCGAAGTCTAGGACGTTATCA yielded a binding signal (log2 normalized intensity) of -1.1.
In the case of CCTCTTCTGGGAAGAGTAGATAAGCAGATC, the binding signal (log2 normalized intensity) is reported as -1.27.
Work on TTGGGACAAAGTTTGCCTGGGCTCTAGACA yielded a binding signal (log2 normalized intensity) of -1.35.
For AGCAGAAACATAGAAAGGAGTACACACCAT, the binding signal (log2 normalized intensity) was -1.35.
With GTGTTTATGGCAAATTGATATCCTGTCTAT the binding signal (log2 normalized intensity) was 0.623.
For CTTACATTTTGCTCTTTGTACCGTTTGAAC, the binding signal (log2 normalized intensity) was 4.24.
GTTATCTCGGGGATGGCATGTCTCTGGTCG showed a binding signal (log2 normalized intensity) of 1.29.
For ACTGTCCTAGGTGCTGAAGATGCAACAGTG, the binding signal (log2 normalized intensity) was 0.987.
In the case of AAAGGAGGAATCTGTGAAGGTCAGGAGCCC, the binding signal (log2 normalized intensity) is reported as -0.114.
GACAGCAGGAGTGGGAGAAAGCTTTGGACT showed a binding signal (log2 normalized intensity) of 2.65.
Sequence AACAAGTAAGGAAGACAAGACAAGGAAGTT has a binding signal (log2 normalized intensity) of -1.39.
CAAAACTGGCAAAACTGGTCAATATCCACA showed a binding signal (log2 normalized intensity) of -1.06.
Sequence ATCCACATGTGGGTCCAAAGAACATTGCAT has a binding signal (log2 normalized intensity) of 3.03.
With CCCTTGACCAAGCAGCTGTTTGACCAAAGC the binding signal (log2 normalized intensity) was -0.933.
With TATGGCCCACAAAGCCTAAAATATTCACTA the binding signal (log2 normalized intensity) was -1.34.
Work on AAAGAATTCGTCCAGGGCCGCCCAAGCGAA yielded a binding signal (log2 normalized intensity) of -1.13.
With TCCGCTTGATGCCTGTTGCTCAGAATTACT the binding signal (log2 normalized intensity) was -1.41.
With AACAAACAAAAACCAAAAAAACTTAACAGA the binding signal (log2 normalized intensity) was -1.33.
Work on GCAAAGTCCCTGGGGACAGGGATTAAGTAC yielded a binding signal (log2 normalized intensity) of -0.21.
GTCAGGAGACTGCTCGGCATCCCTGCCGTG showed a binding signal (log2 normalized intensity) of -1.39.
In the case of GAAAAATGTACATGTGCAAAAGCACCCAAG, the binding signal (log2 normalized intensity) is reported as -1.27.
Sequence AACATTGCATTCCTTTGTTTATCTAACCCA has a binding signal (log2 normalized intensity) of 1.59.
For GACTGATATTCAAACAGGTCAAGCAATGCT, the binding signal (log2 normalized intensity) was -1.4.
GCAGGTGTGGGGGCGGCAGGAGCCACAAGC gave a binding signal (log2 normalized intensity) of -1.22.
ATCAGCAAGGTAAACATGATGAAAGCAATG showed a binding signal (log2 normalized intensity) of -1.07.
Work on AACCCCTCTCCAAGCCAGAAAGATGTTTGC yielded a binding signal (log2 normalized intensity) of 2.79.
For AGGAGTTCAGCAGCATCTAAACTCTACTCA, the binding signal (log2 normalized intensity) was -1.25.
With CTGAACAAACAGCTTCCAGAATAGCCTCTG the binding signal (log2 normalized intensity) was -1.41.
TTAAGTCCAGAAAAGACCAAAAAGGCTAAC gave a binding signal (log2 normalized intensity) of -1.13.
Work on CATGCCACAGCGCCCTCAGTGTTTTCACTG yielded a binding signal (log2 normalized intensity) of -0.56.
ATATATGTACAGCTGTGTATGTGGCAGGCA was tested, and the binding signal (log2 normalized intensity) was 1.11.
TGGTACAGGGCCCAGAAAAGTAGATTGTTA was tested, and the binding signal (log2 normalized intensity) was -1.21.
Work on AGGCATGACAGAGTGTCCTGCCCCCTGGAG yielded a binding signal (log2 normalized intensity) of 4.33.
Sequence CGCGCGTGTGTGTGTGTGTGTGGTGTGTGT has a binding signal (log2 normalized intensity) of 3.23.
Work on AGCGTCAATGCCCCAGAAAGCCAGCAGGGG yielded a binding signal (log2 normalized intensity) of -1.43.
Work on GCTTGGGCGACGGACGCGCCGCGCCGGGGA yielded a binding signal (log2 normalized intensity) of -1.33.
TGACCTTTATCCAGTTCTGTGTACAAAGCC gave a binding signal (log2 normalized intensity) of 3.01.
GTGGTTTCTTCCACTGGAGTCTTGTTTGTC showed a binding signal (log2 normalized intensity) of 1.9.
With GGCCTGGTGGCTCCCCCAGGCGACTGGGCC the binding signal (log2 normalized intensity) was 0.699.
With GATTACGATCCTGCCCTTCTGACCTCCCAG the binding signal (log2 normalized intensity) was 4.54.
Sequence GAAATGTAACCTTTGGCCAATTGCATTTTT has a binding signal (log2 normalized intensity) of 5.04.
Sequence CCAATATAGCAAAGAGAGTCAAAGTTCAGG has a binding signal (log2 normalized intensity) of 3.27.
TTGCACCAGTTTCTCAACAGACCCCTGAAT gave a binding signal (log2 normalized intensity) of 2.81.
Work on CAGTAAGAGGATTTCTTCGCCACTTTCATC yielded a binding signal (log2 normalized intensity) of -1.26.
In the case of AACTTAGGCCCATATTCCTTAGATAAAAAG, the binding signal (log2 normalized intensity) is reported as -0.773.
TTCAATAATACAAGAGGCTTCTTATCAGCA showed a binding signal (log2 normalized intensity) of -1.3.
Work on ATTTATCTTTCCAGATTGTTCTATTAACCT yielded a binding signal (log2 normalized intensity) of 1.68.
CTGATTAGCCTTTCCAAAGGAGGCAATGAG was tested, and the binding signal (log2 normalized intensity) was -1.33.
CGATTATCTACAGATCTGGAGCCAGCAAGG was tested, and the binding signal (log2 normalized intensity) was -1.34.
Work on TTAGTCCATGACGCAAGCGAGTAAGGCCCG yielded a binding signal (log2 normalized intensity) of -1.22.
AATGGGTCCGAAGGTCAGCTGACCAACAGA gave a binding signal (log2 normalized intensity) of 4.98.
In the case of AGGCAATGTCACGTTTATTTCTAACAGCTG, the binding signal (log2 normalized intensity) is reported as -1.3.
CCTGGAGGGACTTTGTCCCACAGGAGAAGT gave a binding signal (log2 normalized intensity) of 4.07.
CCACGACAGAATTGACTCTTCGTTTTCTTT was tested, and the binding signal (log2 normalized intensity) was 1.58.
In the case of ATTTGCAGCAAGGCCCAGGGCAAGGACTCT, the binding signal (log2 normalized intensity) is reported as -1.32.
In the case of TTTTGGGTAAAGTCCAGGCAGGACATCAAA, the binding signal (log2 normalized intensity) is reported as 2.27.
For AGATGAGGAAATTGAGGCTTAGCAGCTTGA, the binding signal (log2 normalized intensity) was -1.15.
TCCTCAAAGAGCAGATGTGTCTTTATAACA was tested, and the binding signal (log2 normalized intensity) was 0.719.
For TCCCCTGGGCCCACGGCTCTGCACAGCCTG, the binding signal (log2 normalized intensity) was -1.06.
In the case of CAAGATTCTTGGAGGCTGCAGCGCCACATT, the binding signal (log2 normalized intensity) is reported as -1.34.
Sequence ATGCCAGGCAAGAGCTCAGAAGCCACCAGT has a binding signal (log2 normalized intensity) of -1.3.
Work on ACAGATTCAGAGTCACATTTTAAGAAACCT yielded a binding signal (log2 normalized intensity) of -1.17.
CAGGGCAAGGACTCTAAAGGGAATAACCTT showed a binding signal (log2 normalized intensity) of 0.381.
